Assay results from patent US20230278972A1, “SUBSTITUTED HALOALKYL SULFONANILIDE HERBICIDES” (FMC Corporation, priority 2020, published 2023).

Experiments:
[1] = system: barnyardgrass (Echinochloa crus-galli); experiment: Test B flooded paddy test, barnyardgrass; settings: Flood, 250 g ai/ha; visual rating after 13 to 15 days; scale of 0 to 100 where 0 is no effect and 100 is complete control
[2] = system: sedge, umbrella (small-flower umbrella sedge, Cyperus difformis); experiment: Test B flooded paddy test, sedge, umbrella; settings: for Plant response rating, Sedge, Umbrella: Flood, 250 g ai/ha, visual rating after 13 to 15 days, scale of 0 to 100 where 0 is no effect and 100 is complete control; for pest or weed control at 250 g/ha: Cyperus difformis, 336 h, read-out: Plant response rating, Sedge, Umbrella
[3] = system: ducksalad (Heteranthera limosa); experiment: Test B flooded paddy test, ducksalad; settings: Flood, 250 g ai/ha; visual rating after 13 to 15 days; scale of 0 to 100 where 0 is no effect and 100 is complete control
rice (Oryza sativa) = experiment: Test B flooded paddy test, rice; settings: Flood, 250 g ai/ha; visual rating after 13 to 15 days; scale of 0 to 100 where 0 is no effect and 100 is complete control

SMILES | Plant response rating, Barnyardgrass [1] | Plant response rating, Sedge, Umbrella [2] | Plant response rating, Ducksalad [3] | Plant response rating, Rice (rice (Oryza sativa)) | pest or weed control at 250 g/ha [2]
Cc1cc(C)c(C2=NOC3CCCCC23)cc1NS(=O)(=O)C(F)(F)F (racemic) [Compound 125] | 0 | 85 | 30 | 0 | 
CC(=O)OCN(c1cc(C2=NO[C@@H]3CCC[C@H]23)c(C)cc1C)S(=O)(=O)C(F)(F)F (relative stereo) [Compound 102] | 90 | 80 | 85 | 35 | 
Cc1cc(C)c(C2=NOC3(C2)CC(C)CC(C)C3)cc1NS(=O)(=O)C(F)(F)F (single isomer, unassigned) [Compound 167] | 0 | 0 | 0 | 0 | 
Cc1cc(C)c(C2=NOC3(C2)CC(C)CC(C)C3)cc1NS(=O)(=O)C(F)(F)F (single isomer, unassigned) [Compound 168] | 0 | 65 | 0 | 0 | 
Cc1cc(C)c(C2=NOC3(C2)CC(C)OC(C)C3)cc1NS(=O)(=O)C(F)(F)F (single isomer, unassigned) [Compound 171] | 55 | 60 | 30 | 45 | 
Cc1cc(C)c(C2=NOC3(C2)CC(C)OC(C)C3)cc1NS(=O)(=O)C(F)(F)F (single isomer, unassigned) [Compound 173] | 80 | 80 | 75 | 15 | 
Cc1cc(Cl)c(NS(=O)(=O)C(F)(F)F)cc1C(=O)N1CCOC(C)C1 (stereo not shown) [Compound 1] | 0 | 70 | 65 | 30 | 
Cc1cc(C(=O)N2CCOC(C)(C)C2)cc(NS(=O)(=O)C(F)(F)F)c1Cl [Compound 2] | 0 | 70 | 65 | 35 | 
CSC1CCCN(C(=O)c2cc(NS(=O)(=O)C(F)(F)F)c(C)cc2C)C1 (stereo not shown) [Compound 3] | 0 | 70 | 80 | 0 | 
Cc1cc(C)c(N(S(=O)(=O)C(F)(F)F)S(=O)(=O)C(F)(F)F)cc1C(=O)N1CCSCC1 [Compound 5] | 0 | 0 | 0 | 0 | 
Cc1cc(C)c(C(=O)N2CCOCC2)cc1NS(=O)(=O)C(F)(F)F [Compound 6, N-[2,4-Dimethyl-5-(4-morpholinylcarbonyl)phenyl]-1,1,1-trifluoromethanesulfonamide] |  |  |  |  | 0%
Cc1ccc(C(=O)N2CCC(C)CC2)cc1NS(=O)(=O)C(F)(F)F [Compound 7] | 0 | 70 | 30 | 0 | 
Cc1cc(C)c(C(=O)N2CCC(F)CC2)cc1NS(=O)(=O)C(F)(F)F [Compound 8] | 25 | 90 | 80 | 0 | 
Cc1cc(C)c(C(=O)N2CC(C)OC(C)C2)cc1NS(=O)(=O)C(F)(F)F (stereo not shown) [Compound 9] | 85 | 95 | 95 | 10 | 
Cc1cc(C)c(C(=O)N2CCN(C)CC2)cc1NS(=O)(=O)C(F)(F)F [Compound 10] | 0 | 0 | 0 | 0 | 
Cc1cc(Cl)c(NS(=O)(=O)C(F)(F)F)cc1C(=O)N1CCOCC1 [Compound 16, N-[2-Chloro-4-methyl-5-(4-morpholinylcarbonyl)phenyl]-1,1,1-trifluoromethanesulfonamide] |  |  |  |  | 95%
Cc1cc(Cl)c(NS(=O)(=O)C(F)(F)F)cc1C(=O)N1CCCCC1 [Compound 18, N-[2-Chloro-4-methyl-5-(1-piperidinylcarbonyl)phenyl]-1,1,1-trifluoromethanesulfonamide] |  |  |  |  | 0%

SMILES | Plant response rating, Barnyardgrass [1] | Plant response rating, Sedge, Umbrella [2] | Plant response rating, Ducksalad [3] | Plant response rating, Rice (rice (Oryza sativa)) | pest or weed control at 250 g/ha [2]
CCc1cc(-c2cc(NS(=O)(=O)C(F)(F)F)c(C)cc2C)c(=O)n(C)n1 [Compound 34, N-[5-(6-Ethyl-2,3-dihydro-2-methyl-3-oxo-4-pyridazinyl)-2,4-dimethylphenyl]-1,1,1-trifluoromethanesulfonamide] |  |  |  |  | 0%
Cc1cc(C)c(N(COC(=O)C(C)(C)C)S(=O)(=O)C(F)(F)F)cc1C1=NO[C@@H]2CCC[C@H]12 [Compound 100, [[2,4-Dimethyl-5-[(3aR,6aR)-3a,5,6,6a-tetrahydro-4H-cyclopent[d]isoxazol-3-yl]phenyl][(trifluoromethyl)sulfonyl]amino]methyl 2,2-dimethylpropanoate] |  |  |  |  | 80%
Cc1cc(C)c(C2=NO[C@@H]3CCC[C@H]23)cc1NS(=O)(=O)C(F)(F)F [Compound 103, N-[2,4-Dimethyl-5-[(3aR,6aR)-3a,5,6,6a-tetrahydro-4H-cyclopent[d]isoxazol-3-yl]phenyl]-1,1,1-trifluoromethanesulfonamide] |  |  |  |  | 85%
Cc1cc(C)c(C2=NOC3CCOCC23)cc1NS(=O)(=O)C(F)(F)F (stereo not shown) [Compound 120, N-[2,4-Dimethyl-5-(3a,6,7,7a-tetrahydro-4H-pyrano[3,4-d]isoxazol-3-yl)phenyl]-1,1,1-trifluoromethanesulfonamide] |  |  |  |  | 55%
Cc1cc(C)c(C2=NOC3COCCC23)cc1NS(=O)(=O)C(F)(F)F (stereo not shown) [Compound 121, N-[2,4-Dimethyl-5-(3a,4,7,7a-tetrahydro-5H-pyrano[4,3-d]isoxazol-3-yl)phenyl]-1,1,1-trifluoromethanesulfonamide] |  |  |  |  | 70%
Cc1c(NS(=O)(=O)C(F)(F)F)cc(C(=O)N(C)C)c(C)c1F [Compound 128, 3-Fluoro-N,N,2,4-tetramethyl-5-[[(trifluoromethyl)sulfonyl]amino]benzamide] |  |  |  |  | 90%
Cc1cc(C)c(N(COC(=O)C(C)(C)C)S(=O)(=O)C(F)(F)F)cc1C1=NOC2(CCCC2)C1 [Compound 140, [[2,4-Dimethyl-5-(1-oxa-2-azaspiro[4.4]non-2-en-3-yl)phenyl][(trifluoromethyl)sulfonyl]amino]methyl 2,2-dimethylpropanoate] |  |  |  |  | 95%
Cc1cc(C)c(N(COC(=O)C(C)(C)C)S(=O)(=O)C(F)(F)F)cc1C1=NOC2(CCCCC2)C1 [Compound 159, [[2,4-Dimethyl-5-(1-oxa-2-azaspiro[4.5]dec-2-en-3-yl)phenyl][(trifluoromethyl)sulfonyl]amino]methyl 2,2-dimethylpropanoate] |  |  |  |  | 70%
Cc1c(NS(=O)(=O)C(F)(F)F)cc(C(=O)N2CCOCC2)c(C)c1F [Compound 190, 1,1,1-Trifluoro-N-[3-fluoro-2,4-dimethyl-5-(4-morpholinylcarbonyl)phenyl]methanesulfonamide] |  |  |  |  | 80%
Cc1cc(C)c(C2=NOC3(CCCCC3)C2)cc1NS(=O)(=O)C(F)(F)F [Compound 197, N-[2,4-Dimethyl-5-(1-oxa-2-azaspiro[4.5]dec-2-en-3-yl)phenyl]-1,1,1-trifluoromethanesulfonamide] |  |  |  |  | 98%
Cc1cc(C)c(C2=NOC3(CCCC3)C2)cc1NS(=O)(=O)C(F)(F)F [Compound 207, N-[2,4-Dimethyl-5-(1-oxa-2-azaspiro[4.4]non-2-en-3-yl)phenyl]-1,1,1-trifluoromethanesulfonamide] |  |  |  |  | 98%
Cc1cc(Cl)c(NS(=O)(=O)C(F)(F)F)cc1C(=O)N1CCC(F)(F)CC1 [Compound 229, N-[2-Chloro-5-[(4,4-difluoro-1-piperidinyl)carbonyl]-4-methylphenyl]-1,1,1-trifluoromethanesulfonamide] |  |  |  |  | 95%
Cc1cc(C)c(C(=O)N2CCC(F)(F)CC2)cc1NS(=O)(=O)C(F)(F)F [Compound 241, N-[5-[(4,4-Difluoro-1-piperidinyl)carbonyl]-2,4-dimethylphenyl]-1,1,1-trifluoromethanesulfonamide] |  |  |  |  | 98%
Cc1cc(C)c(C(=O)N2CCCCC2)cc1NS(=O)(=O)C(F)(F)F [Compound 260, N-[2,4-Dimethyl-5-(1-piperidinylcarbonyl)phenyl]-1,1,1-trifluoromethanesulfonamide] |  |  |  |  | 95%
Cc1cc(C)c(N(S(=O)(=O)C(F)(F)F)S(=O)(=O)C(F)(F)F)cc1N1CCC2(CCCCC2)C1=O [Compound 267, N-[2,4-Dimethyl-5-(1-oxo-2-azaspiro[4.5]dec-2-yl)phenyl]-1,1,1-trifluoro-N-[(trifluoromethyl)sulfonyl]methanesulfonamide] |  |  |  |  | 70%
Cc1cc(C)c(N(COC(=O)C(C)(C)C)S(=O)(=O)C(F)(F)F)cc1N1CCC2(CCCCC2)C1=O [Compound 268, [[2,4-Dimethyl-5-(1-oxo-2-azaspiro[4.5]dec-2-yl)phenyl][(trifluoromethyl)sulfonyl]amino]methyl 2,2-dimethylpropanoate] |  |  |  |  | 70%
Cc1cc(C)c(N2CCC3(CCCCC3)C2=O)cc1NS(=O)(=O)C(F)(F)F [Compound 278, N-[2,4-Dimethyl-5-(1-oxo-2-azaspiro[4.5]dec-2-yl)phenyl]-1,1,1-trifluoromethanesulfonamide] |  |  |  |  | 85%
